# Assay results taken from PubChem BioAssay AID720709 (National Center for Advancing Translational Sciences (NCATS), 2013).
# The campaign covered roughly 360,000 compounds. About 520 (0.14%) were called active. Inconclusive results, whose numbers are uncertain, are shown with a selection of clear calls. Calls come from the whole dose curve; as a rule, active = well fitted inhibition curve with a large enough effect; inconclusive = small, poorly fitted or top-dose-only effect; inactive = no such curve, though single readings can be large or run the other way. Potencies of inconclusive entries are left out as doubtful fits.
# Target: Rap guanine nucleotide exchange factor 3 (Homo sapiens) (UniProt O95398)
# Chain of UniProt O95398 (O95398 whole entry, looked up): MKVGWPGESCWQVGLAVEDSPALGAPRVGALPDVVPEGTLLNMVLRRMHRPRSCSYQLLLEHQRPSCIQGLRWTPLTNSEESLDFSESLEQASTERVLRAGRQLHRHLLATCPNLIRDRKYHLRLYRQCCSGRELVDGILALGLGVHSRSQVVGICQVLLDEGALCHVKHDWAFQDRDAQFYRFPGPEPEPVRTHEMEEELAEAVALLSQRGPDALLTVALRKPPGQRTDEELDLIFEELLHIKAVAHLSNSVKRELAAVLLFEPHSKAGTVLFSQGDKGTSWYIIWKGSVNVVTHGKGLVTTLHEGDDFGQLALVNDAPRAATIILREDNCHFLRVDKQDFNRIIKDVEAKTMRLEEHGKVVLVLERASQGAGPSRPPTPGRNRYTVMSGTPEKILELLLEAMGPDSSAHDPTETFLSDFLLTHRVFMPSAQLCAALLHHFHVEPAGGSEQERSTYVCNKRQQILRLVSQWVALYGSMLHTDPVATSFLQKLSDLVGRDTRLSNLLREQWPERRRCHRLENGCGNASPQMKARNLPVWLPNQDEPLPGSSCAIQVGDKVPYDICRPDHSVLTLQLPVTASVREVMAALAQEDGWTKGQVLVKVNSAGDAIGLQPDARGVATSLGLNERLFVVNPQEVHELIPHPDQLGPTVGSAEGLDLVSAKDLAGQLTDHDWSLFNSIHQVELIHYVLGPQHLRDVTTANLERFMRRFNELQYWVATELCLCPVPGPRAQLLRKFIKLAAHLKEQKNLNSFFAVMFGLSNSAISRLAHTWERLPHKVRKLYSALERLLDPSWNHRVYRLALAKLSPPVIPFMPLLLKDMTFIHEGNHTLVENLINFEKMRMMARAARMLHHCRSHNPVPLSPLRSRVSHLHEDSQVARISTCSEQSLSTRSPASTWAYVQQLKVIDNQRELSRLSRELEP
# Assay: qHTS for Antagonist of cAMP-regulated guanine nucleotide exchange factor 3 (EPAC1): primary screen; note: nearly all actives have a fitted effect of over 50% in size;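 for activity change, negative = inhibition: plate controls were vehicle for no effect and positive control for full effect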
# Settings: EPAC1 GEF assay, Rap1b-BODIPY-GDP exchange fluorescence; activity change, negative = inhibition: at 115 µM (top of the series)
# Potency is the fitted concentration of half-maximal effect; tags give direction and shape of the fitted curve.
SMILES,Potency,"activity change, negative = inhibition"
CC1=NN(c2nc(-c3ccc(C)cc3)cs2)C(=O)C1N=Nc1cccc(O)c1 (configuration not stated),"inconclusive [inhibitor, partial curve]",–
Cc1ccc(-n2cc[nH]c2=S)cc1C,–,inconclusive: 11.5% [inhibitor]
COC(=O)/C(=C/Nc1ccc(O)cc1)[N+](=O)[O-],"inconclusive [inhibitor, single point]",–
COc1ccc(OC)c2[nH]c(C(=O)N/N=C/c3ccccc3O)cc12,"inconclusive [inhibitor, full curve, poor fit]",–
COc1ccccc1N1CC(C(=O)OCc2nc(N)nc(Nc3ccccc3)n2)CC1=O (configuration not stated),"inconclusive [inhibitor, single point]",–
CCn1nc([N+](=O)[O-])c(C(C#N)c2nc3cc(C(F)(F)F)ccc3s2)c(Cl)c1=O (configuration not stated),"inconclusive [inhibitor, single point]",–
O=C(Nc1ccc(NC(=O)c2ccco2)c(Cl)c1)c1ccc2c(c1)OCCO2,"inconclusive [inhibitor, partial curve]",–
CCN(C(=O)COC(=O)c1ccc(OC)c(S(=O)(=O)N(C)Cc2ccccc2)c1)C1CCS(=O)(=O)C1 (configuration not stated),"inconclusive [inhibitor, partial curve]",–
COc1ccccc1/C=C/C=C(\C#N)C(=O)NC(C)c1ccccc1 (configuration not stated),"inconclusive [inhibitor, partial curve]",–
CC1(Cc2ccccc2Cl)C(=O)Nc2ccc(OC(F)(F)F)cc21 (configuration not stated),"inconclusive [inhibitor, full curve, poor fit]",–
Cc1ccc(C(C)(C)C)cc1S(=O)(=O)N1CCC(C(=O)N2CCN(c3ccc(O)cc3)CC2)CC1,"inconclusive [inhibitor, single point]",–
O=C(CSc1cn(Cc2ccccc2)c2ccccc12)N1CCOCC1,inactive,–
Cn1c(CNC(=O)OC(C)(C)C)n[nH]c1=S,"inconclusive [inhibitor, partial curve]",–
CC(=O)OCC1=C(C(=O)O)N2C(=O)C(NC(=O)c3ccc(COc4c(C)cccc4Cl)o3)C2SC1 (configuration not stated),"inconclusive [inhibitor, partial curve, poor fit]",–
Cc1ccn(-c2cc(O)c(-n3ccc(C)n3)cc2O)n1,inactive,–
CCCCn1c(=O)[nH]c(=O)c2c1nc(Cn1ncc(Cl)c(Cl)c1=O)n2CCC,"inconclusive [inhibitor, partial curve]",–
CCC(CC)NC(=O)c1oc2ccccc2c1COc1ccccc1,–,inconclusive: -30.9% [inhibitor]
O=C(Nc1ccccc1)C(c1ccccc1)C1CCCC1 (configuration not stated),"inconclusive [inhibitor, partial curve, poor fit]",–
CCS(=O)(=O)c1ccc2oc(=O)c(/C=C(\O)c3ccc(Cl)cc3)nc2c1,inactive,–
CSc1ccc(CN2CCC2(C)C(=O)Nc2ccc(C)c(O)c2)cc1 (configuration not stated),"inconclusive [inhibitor, single point]",–
CC(C)(C)OC(=O)N[C@@H](C(=O)OC(C)(C)C)c1ccc2c(c1)OCO2,"inconclusive [inhibitor, partial curve]",–
COCCCNC(=S)N/N=C/c1ccccc1O,"inconclusive [inhibitor, full curve, poor fit]",–
CC(C)COc1ccc(N)cc1OCC(C)C,"inconclusive [inhibitor, full curve, poor fit]",–

SMILES,Potency,"activity change, negative = inhibition"
Cc1cc(C(=O)COC(=O)c2cc(Cl)ccc2N)c(C)n1Cc1ccco1,"inconclusive [inhibitor, single point]",–
Cc1ccc(N2NC(=O)/C(=C/C=C/c3ccco3)C2=O)cc1C,"inconclusive [inhibitor, partial curve]",–
CCOC(=O)Cc1csc(NS(=O)(=O)c2cc(Cl)ccc2Cl)n1,"inconclusive [inhibitor, partial curve]",–
COc1ccc(C(=O)Nc2nnc(S(=O)(=O)N3CCCCCC3)s2)cc1OC,"inconclusive [inhibitor, single point]",–
COc1ccc(CCNC(=O)c2ccc(CNc3c(N4CCOCC4)c(=O)c3=O)cc2)cc1OC,"inconclusive [inhibitor, single point]",–
CC(=O)C(=Nc1ccccc1Cl)NNc1ccc(Cl)cc1,inactive,–
O=C(c1cccc(S(=O)(=O)Nc2ccccc2F)c1)N1CCN(c2ccccc2F)CC1,"inconclusive [inhibitor, partial curve]",–
CC1CCCN(C(=O)COC(=O)Cc2c[nH]c3ccccc23)C1 (configuration not stated),"inconclusive [inhibitor, single point]",–
O=C1CCCC2=C1C(c1cccs1)n1nc(SCc3ccccc3)nc1N2 (configuration not stated),"inconclusive [inhibitor, single point]",–
CCCN(c1ccccc1F)S(=O)(=O)c1c[nH]c(C(=O)OC)c1,inactive,–
CCNC(=S)SCCOc1ccccc1C,"inconclusive [inhibitor, partial curve]",–
Cc1n[nH]c(=O)n1-c1ccc(OCc2ccccc2)cc1,inactive,–
Cc1ccccc1C(=O)Nc1ccc(S(=O)(=O)N2CCCC2)cc1,"inconclusive [inhibitor, partial curve]",–
COc1ccccc1N1CCN(CC(=O)NCc2ccc(Cl)cc2)CC1,"inconclusive [inhibitor, full curve]",–
Cc1ccc(-c2ccc(CCC(=O)O)n2C(C)C)cc1,inactive,–
CCOC(=O)c1c(N)nn(C(=O)C(C)C)c1-c1ccccc1,"inconclusive [inhibitor, partial curve, poor fit]",–
O=C(O)c1cc(N/N=C/C=C/c2ccccc2)ccc1Cl,"inconclusive [inhibitor, partial curve]",–
O=C(COC(=O)C1=Cc2ccccc2OC1)NCc1ccc(F)cc1,"inconclusive [inhibitor, partial curve]",–
O=C(O)C1CCN(c2ncccn2)CC1,–,inconclusive: 0.344% [inhibitor]
COc1cc(C=NNc2ccc(S(=O)(=O)Nc3ccccc3C(=O)O)cc2[N+](=O)[O-])ccc1O,active: 89.1 µM,–
c1ccc(C[n+]2cccc3c4ccccc4ccc32)cc1,inactive,–
Cc1ccccc1S(=O)(=O)N1[C@@H](c2cccc(Cl)c2)C(C(=O)O)=CC[C@H]1c1ccc(Cl)cc1,"inconclusive [inhibitor, full curve]",–
COc1ccc2c(c1)CCC1C2=NN(/C(C)=C/C(C)=O)C1c1cccc(F)c1 (configuration not stated),"inconclusive [inhibitor, full curve, poor fit]",–

SMILES,Potency,"activity change, negative = inhibition"
CCc1ccccc1N(CC(=O)NCc1ccco1)C(=O)CCC(=O)Nc1nccs1,"inconclusive [inhibitor, full curve, poor fit]",–
Cc1c(NS(=O)(=O)c2cc(C(=O)O)ccc2Cl)c(=O)n(-c2ccccc2)n1C,"inconclusive [inhibitor, full curve, poor fit]",–
COC(=O)c1ccc(N2NC(=O)/C(=C/c3ccc(-c4ccc(Cl)c(C(=O)O)c4)o3)C2=O)cc1,"inconclusive [inhibitor, single point]",–
OCCN=c1cc(-c2ccccc2)oc2ccc(Cl)cc12,inactive,–
c1ccc(Nc2nc(-c3ccccn3)cs2)cc1,inactive,–
Cc1ccccc1Cn1nc(C)c(NC(=O)c2noc3c2CC(C(C)(C)C)CC3)c1C (configuration not stated),"inconclusive [inhibitor, single point]",–
CC(C)=CC(=O)O[C@@H]1Cc2cc3ccc(=O)oc3cc2OC1(C)C,"inconclusive [inhibitor, full curve, poor fit]",–
CCCCCCSc1ccc(-c2nc3ccc(C)cn3c2NCc2ccccc2)cc1OC,inactive,–
Cn1c(O)c(N=NC(=O)c2ccccc2O)c2ccccc21,active: 31.6 µM,–
O=C(Nc1ccccc1C(=O)O)/C(=C/c1ccc(Cl)cc1Cl)NC(=O)c1ccco1,inactive,–
O=C(c1ccc([N+](=O)[O-])o1)N1CCOCC1,"inconclusive [inhibitor, full curve, poor fit]",–
COc1ccc(CCN(Cc2ccccn2)C(=S)Nc2ccccc2C)cc1OC,"inconclusive [inhibitor, partial curve]",–
O=C(Nc1cccc(F)c1)c1coc(=O)c(Br)c1,"inconclusive [inhibitor, full curve, poor fit]",–
Cc1coc2c1C(=O)C(=O)c1c-2ccc2c1CCCC2(C)C,"inconclusive [inhibitor, partial curve]",–
Cn1c(/N=C/c2c(O)ccc3ccccc23)nc2ccccc21,inactive,–
O=C(CSc1nnc(SCc2ccc(Cl)cc2)s1)N/N=C/c1c[nH]c2ccccc12,"inconclusive [inhibitor, full curve]",–
CCc1nnc(NC(=O)c2cc(-c3ccc(C)o3)nc3ccccc23)s1,"inconclusive [inhibitor, full curve, poor fit]",–
C/C(=N/NC(=O)c1ccc(Br)o1)c1ccncc1,inactive,–
Cc1cc(=O)[nH]c(/N=C(\N)Nc2cccc3ccccc23)n1,"inconclusive [inhibitor, partial curve]",–
Cc1ccc(NC(=O)CN(C)Cc2cccs2)cc1Cl,"inconclusive [inhibitor, partial curve]",–
COc1ccc(C2=NN(c3nc4ccccc4s3)C(=O)C2)cc1,active: 79.4 µM,–
